Assay results reported in the supplement of paper PMC12645437, “Orthogonal IMiD-Degron Pairs Induce Selective Protein Degradation in Cells” (ACS Chemical Biology, 2025).
This is one part of the list.

B1: Q9UKT9 (peptide)
chain: FNCPICGAEFTQKGNLLRHIKL
B2: Q9UKT9 (peptide)
chain: FWCEVCGATFTQKGNLLRHIKL
B3: Q9UKT9 (peptide)
chain: FFCDVCGAYFTQKGNLLRHIKL
B4: Q9UKT9 (peptide)
chain: FGCDICGARFTQKGNLLRHIKL
B5: Q9UKT9 (peptide)
chain: FNCNVCGACFTQKGNLLRHIKL
B6: Q9UKT9 (peptide)
chain: FKCEICGAVFTQKGNLLRHIKL
B7: Q9UKT9 (peptide)
chain: FECDICGAYFTQKGNLLRHIKL
B8: Q9UKT9 (peptide)
chain: FNCSVCGHQFTQKGNLLRHIKL
B9: Q9UKT9 (peptide)
chain: FCCDVCGADFTQKGNLLRHIKL
B10: Q9UKT9 (peptide)
chain: FYCDICGAPFTQKGNLLRHIKL
B11: Q9UKT9 (peptide)
chain: FKCPVCGAPFTQKGNLLRHIKL
B12: Q9UKT9 (peptide)
chain: FWCEICGAMFTQKGNLLRHIKL
B13: Q9UKT9 (peptide)
chain: FFCNQCGADFTQKGNLLRHIKL
B14: Q9UKT9 (peptide)
chain: FICNQCGHDFTQKGNLLRHIKL
B15: Q9UKT9 (peptide)
chain: FHCNQCGRPFTQKGNLLRHIKL
B16: Q9UKT9 (peptide)
chain: FMCPICGHAFTQKGNLLRHIKL
B17: Q9UKT9 (peptide)
chain: FVCNQCGATFTQKGNLLRHIKL
B18: Q9UKT9 (peptide)
chain: FSCPICGHFFTQKGNLLRHIKL
B19: Q9UKT9 (peptide)
chain: FHCNQCGRVFTQKGNLLRHIKL
B20: Q9UKT9 (peptide)
chain: FFCPICGHGFTQKGNLLRHIKL
B21: Q9UKT9 (peptide)
chain: FNCNQCGHRFTQKGNLLRHIKL
B22: Q9UKT9 (peptide)
chain: FGCEICGRKFTQKGNLLRHIKL
B23: Q9UKT9 (peptide)
chain: FDCEICGHFFTQKGNLLRHIKL
B24: Q9UKT9 (peptide)
chain: FHCPICGRFFTQKGNLLRHIKL
B25: Q9UKT9 (peptide)
chain: FYCPICGHNFTQKGNLLRHIKL
B26: Q9UKT9 (peptide)
chain: FDCNICGAHFTQKGNLLRHIKL
B27: Q9UKT9 (peptide)
chain: FCCEICGACFTQKGNLLRHIKL
B28: Q9UKT9 (peptide)
chain: FECEQCGALFTQKGNLLRHIKL
B29: Q9UKT9 (peptide)
chain: FSCEQCGADFTQKGNLLRHIKL
B30: Q9UKT9 (peptide)
chain: FKCPICGHWFTQKGNLLRHIKL
B31: Q9UKT9 (peptide)
chain: FTCEICGRIFTQKGNLLRHIKL
B32: Q9UKT9 (peptide)
chain: FKCNICGAKFTQKGNLLRHIKL

target: no compound (DMSO); experiment: log2 fold change of degron read counts, EGFP-low vs EGFP+ sorted cells; higher = lower degron-EGFP level without compound (poor expression or instability); conditions: compound: DMSO control; 18 h
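Also: jurkat cells carrying a lentiviral library of mutant zinc finger degrons fused to EGFP plus mCherry, mCherry+ cells FACS sorted, degron abundance counted by next-generation sequencing.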

Sequence | log2 fold change of degron read counts
B1 | -0.874
B2 | -0.895
B3 | -0.486
B4 | -1.19
B5 | -0.104
B6 | -1.64
B7 | -1.44
B8 | -1.01
B9 | -2
B10 | -0.734
B11 | 0.222
B12 | -0.184
B13 | -0.091
B14 | -1.87
B15 | 0.0851
B16 | -0.0169

Sequence | log2 fold change of degron read counts
B17 | -0.609
B18 | 0.0848
B19 | 0.188
B20 | 0.606
B21 | 0.566
B22 | -1.43
B23 | 1.27
B24 | -1.63
B25 | -0.223
B26 | -0.596
B27 | -0.878
B28 | -1.96
B29 | -2.97
B30 | 0.394
B31 | -0.457
B32 | -1.45
